Measurements as given in PubChem BioAssay AID504332 (National Center for Advancing Translational Sciences (NCATS), 2011).
Values joined by “and” are separate entries in the source; they are usually repeats but may differ in a detail not shown here. Identical values can stand only once. Screen size: about 350,000 compounds; about 31,000 (8.9%) were called active. The inconclusive results got no clear call from the source; some entries with a clear call stand among them for comparison. The call rests on the fitted dose curve; in most records, active means well fitted inhibition curve with a large enough effect; inconclusive means small, poorly fitted or top-dose-only effect; inactive means no such curve, though single readings can be large or run the other way. Potencies of inconclusive entries are doubtful fits and often do not repeat.

Molecular target: Histone-lysine N-methyltransferase EHMT2 (Homo sapiens) (UniProt Q96KQ7)
Test: qHTS Assay for Inhibitors of Histone Lysine Methyltransferase G9a; further: nearly all actives have a fitted effect of over 75% in size
Conditions: G9a H3K9 monomethylation, AlphaScreen, 2 h; activity, negative = inhibition: at 59 µM (top of the series) unless noted
In short: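 Methyltransferase reactions run at room temperature for 2 h (20 nM enzyme, 500 nM biotin-H3K9 peptide, 20 uM SAM) after a 15 min compound preincubation; product detected by AlphaScreen beads and anti-H3K9me1 antibody.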
On the % scale 0 is the no-effect control and ±100 the full control effect; potency means the concentration at half of the fitted maximal effect; tags describe the fitted curve by direction and shape.

Sequence of UniProt Q96KQ7 (Q96KQ7 whole entry, looked up): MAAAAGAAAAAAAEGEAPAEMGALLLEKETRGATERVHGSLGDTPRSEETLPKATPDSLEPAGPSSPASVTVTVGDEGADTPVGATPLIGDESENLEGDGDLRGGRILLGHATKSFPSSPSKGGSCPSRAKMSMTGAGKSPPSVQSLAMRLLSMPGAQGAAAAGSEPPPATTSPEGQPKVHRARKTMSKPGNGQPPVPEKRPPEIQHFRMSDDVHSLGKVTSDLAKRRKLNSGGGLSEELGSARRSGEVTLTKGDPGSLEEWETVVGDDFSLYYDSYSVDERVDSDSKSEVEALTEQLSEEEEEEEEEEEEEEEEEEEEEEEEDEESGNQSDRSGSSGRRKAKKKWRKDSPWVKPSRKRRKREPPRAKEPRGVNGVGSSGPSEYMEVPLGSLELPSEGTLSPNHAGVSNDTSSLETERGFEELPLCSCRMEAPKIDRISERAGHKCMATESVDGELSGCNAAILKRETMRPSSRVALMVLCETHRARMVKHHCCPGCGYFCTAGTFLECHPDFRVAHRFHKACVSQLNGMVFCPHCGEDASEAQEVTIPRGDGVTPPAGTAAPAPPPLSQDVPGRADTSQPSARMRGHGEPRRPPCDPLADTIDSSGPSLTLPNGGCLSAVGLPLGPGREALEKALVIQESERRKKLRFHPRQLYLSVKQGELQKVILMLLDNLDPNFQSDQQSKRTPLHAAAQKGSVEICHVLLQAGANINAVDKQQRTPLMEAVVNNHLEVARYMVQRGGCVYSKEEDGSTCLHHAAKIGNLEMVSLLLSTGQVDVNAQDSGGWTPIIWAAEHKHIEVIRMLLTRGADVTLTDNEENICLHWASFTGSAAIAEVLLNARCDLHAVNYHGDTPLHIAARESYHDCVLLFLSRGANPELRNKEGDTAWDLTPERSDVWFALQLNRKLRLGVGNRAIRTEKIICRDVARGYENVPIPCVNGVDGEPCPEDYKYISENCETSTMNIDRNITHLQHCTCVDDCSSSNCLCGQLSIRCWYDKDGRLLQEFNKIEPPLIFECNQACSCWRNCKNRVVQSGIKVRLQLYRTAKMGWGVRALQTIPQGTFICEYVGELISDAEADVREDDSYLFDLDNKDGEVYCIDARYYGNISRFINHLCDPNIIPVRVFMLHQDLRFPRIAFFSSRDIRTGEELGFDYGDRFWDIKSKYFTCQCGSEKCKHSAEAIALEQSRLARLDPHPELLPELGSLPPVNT

SMILES | activity, negative = inhibition | Potency
O=C(OCCCCOC(=O)c1ccccc1)c1ccccc1 | inactive: 356% [at 102 µM] | 
COc1ccc(-n2c(=O)c3c(C)c(C)sc3n(Cc3ccc(F)cc3)c2=O)c(OC)c1 |  | inconclusive: 3.98 µM [inhibitor, partial curve, poor fit]
CC(=O)c1c(C)c(C)c2n1CCn1c(C)ccc1-2 |  | active: 6.31 µM
Cc1cccc(N(C(=O)Cc2cccs2)C(C(=O)NCc2ccco2)c2ccncc2)c1 (stereo unspecified) | inactive: 5.39% [at 102 µM] | 
CCNc1nc(NCC)n2c(SCC(=O)Nc3ccc(NC(C)=O)cc3)nnc2n1 |  | active: 50.1 µM
CC(=O)N1CCN(S(=O)(=O)c2cccc(C(=O)NNC(=O)Cn3ccc(C(F)(F)F)n3)c2)CC1 | inactive: 20.7% [at 0.501 µM] | 
COc1ccc(N2CCN(S(C)(=O)=O)CC2)cc1 |  | inconclusive: 50.1 µM [inhibitor, partial curve, poor fit]
CC(C)OC(=O)C(C(=O)C(F)(F)F)c1cc(NS(=O)(=O)c2ccc3ccccc3c2)c2ccccc2c1O (stereo unspecified) |  | active: 31.6 µM
CC(C)=CC(=O)OCC(=O)Nc1ncc(Cl)c(C)c1Cl | inactive: 28.4% [at 12.7 µM] | 
COc1cccc(-c2nc(SC(C(C)=O)C(=O)N(C)C)c3c(=O)n(C)c(=O)n(C)c3n2)c1 (stereo unspecified) | inactive: 10.9% | 
CCOC(=O)C1=C(CNCc2ccccc2)NC(=O)NC1c1ccc(C)cc1 (stereo unspecified) |  | inconclusive: 28.2 µM [inhibitor, partial curve, poor fit]
O=C(NCCCN1CCOCC1)c1cc(S(=O)(=O)N2CCN(c3ccccc3)CC2)ccc1Cl |  | inconclusive: 70.8 µM [inhibitor, partial curve, poor fit]
CCCc1cc(C(=O)N/N=C/c2cccn2C)cs1 |  | inconclusive: 17.8 µM [inhibitor, partial curve, poor fit]
COc1ccc(CSc2nnc(-c3ccncc3)n2C)cc1F |  | inconclusive: 25.1 µM [inhibitor, partial curve, poor fit]
CN(C)CCn1nnnc1SCC1=C(C(=O)O)N2C(=O)[C@@H](NC(=O)Cc3csc(N)n3)[C@H]2SC1 |  | active: 15.8 µM
CC1CN(C(=O)c2ccc(COc3ccccc3Br)o2)CC(C)O1 (stereo unspecified) |  | inconclusive: 89.1 µM [inhibitor, partial curve, poor fit]
N[C@@H](CCCC(=O)O)C(=O)O |  | inconclusive: 70.8 µM [inhibitor, single point] and inconclusive: 26.7 µM [inhibitor, single point]
CCOc1ccc(N(CC)C(=O)CCNC(=O)Cn2ccc3ccccc3c2=O)cc1 |  | inconclusive: 89.1 µM [inhibitor, single point]
CCOc1ccccc1NC(=O)C1CCN(S(=O)(=O)Cc2ccccc2)CC1 | inactive: 14.6% | 
CCOC(=O)N1CCN(C(=O)COc2ccc(S(=O)(=O)NCC(C)C)cc2C)CC1 |  | inconclusive: 1.58 µM [inhibitor, single point]
CS(=O)(=O)N1CCC[C@@]2(CCN(c3ccccn3)C2)C1 | inactive: -6.22% [at 12.7 µM] | 
CCCCn1c(N)c(N(CC(C)C)C(=O)CCNC(=O)c2ccc(Cl)cc2)c(=O)[nH]c1=O |  | inconclusive: 56.2 µM [inhibitor, partial curve, poor fit]

SMILES | activity, negative = inhibition | Potency
O=C(Nc1ccc(F)cc1)c1cccc(N2CCCS2(=O)=O)c1 | inactive: 7.02% | 
O=C1CSC(=S)N1/N=C/c1ccc(C(F)(F)F)cc1 |  | active: 79.4 µM
O=C(Nc1cccc(S(=O)(=O)N2CCOCC2)c1)C1CC(=O)N(c2ccc3c(c2)OCCO3)C1 (stereo unspecified) |  | inconclusive: 31.6 µM [inhibitor, single point]
CCn1nc(C)c(CNC(=O)C2CCC(=O)N(CCc3ccc(Cl)cc3)C2)c1C (stereo unspecified) |  | inconclusive: 89.1 µM [inhibitor, single point]
CCCCN(C(=O)C(C)Oc1cccc(Cl)c1)c1c(N)n(CCC)c(=O)[nH]c1=O (stereo unspecified) |  | inconclusive: 79.4 µM [inhibitor, partial curve, poor fit]
Cc1c2cnn(CC(=O)N3CCCCC3)c(=O)c2c(C)n1Cc1ccc(Cl)cc1 | inactive: 1.7% | 
Cc1ccc(NC(=O)c2ccc3c(=O)n4nc(Nc5ccccc5C)sc4nc3c2)cc1C |  | inconclusive: 4.47 µM [inhibitor, partial curve, poor fit]
CC(=O)N1c2ccccc2NC2=C(C(=O)CCC2)C1c1ccco1 (stereo unspecified) |  | inconclusive: 79.4 µM [inhibitor, single point]
O=C(Nc1sc2c(c1-c1nc3ccccc3[nH]1)CCCC2)C1CCCC1 |  | inconclusive: 79.4 µM [inhibitor, single point]
COc1cc(OC)c(C2C=C(c3ccc(C)cc3)Nc3c(C(=O)Nc4ccccc4)cnn32)cc1OC (stereo unspecified) |  | inconclusive: 8.91 µM [inhibitor, partial curve]
N/C(=N\OC(=O)c1cc(Cl)ccc1Cl)c1cccnc1 |  | inconclusive: 89.1 µM [inhibitor, single point]
O=C(NNC(=S)NCc1ccccc1)c1ccc(Br)o1 |  | inconclusive: 79.4 µM [inhibitor, single point]
COc1ccc(NC(=O)C(=O)N/N=C(\C)CC(=O)Nc2ccccn2)c(OC)c1 | inactive: -35.5% [at 102 µM] | 
COc1ccc(N2CCN(C(=O)COC(=O)c3ccc(-n4nc(C)cc4C)cc3)CC2)cc1 |  | inconclusive: 8.91 µM [inhibitor, partial curve, poor fit]
COc1ccc(C2c3sc(=O)[nH]c3SCC2C(N)=O)cc1 (stereo unspecified) | inactive: -30.3% [at 102 µM] | 
O=C1c2ccccc2C(Nc2ccc(Cl)cn2)N1c1cccnc1 (stereo unspecified) |  | inconclusive: 89.1 µM [inhibitor, single point]
CCc1c(C)nc2c(-c3ccccc3)c[nH]n2c1=O |  | inconclusive: 89.1 µM [inhibitor, single point]
COC(=O)[C@]1(Cc2ccccc2)N[C@H](c2ccc(-c3ccc4c(c3)OCO4)cc2)[C@@H]2C(=O)N(C)C(=O)[C@@H]21 | inactive: 5.02% [at 2.33 µM] | 
CSc1nc(N)c2c3c(sc2n1)CN(C)CC3 | inactive: -18.5% [at 102 µM] | 
O=C(Nc1cccn(Cc2cccc(F)c2)c1=O)NC1CCCCC1 |  | inconclusive: 44.7 µM [inhibitor, partial curve, poor fit]
CCOc1ccc2ccccc2c1C(=O)NCC(c1ccc(N(C)C)cc1)N(C)C (stereo unspecified) | inactive: -14.1% [at 102 µM] | 
COc1ccc(-c2nc(CSc3nc4ncccc4[nH]3)c(C)o2)cc1OC |  | inconclusive: 11.2 µM [inhibitor, partial curve]

SMILES | activity, negative = inhibition | Potency
CCCCC(=O)Nc1ccc(C(=O)NNC(=O)c2ccccc2Br)cc1 |  | inconclusive: 8.91 µM [inhibitor, partial curve, poor fit]
O=C(NNC(=S)Nc1ccccc1)c1ccncc1 |  | inconclusive: 70.8 µM [inhibitor, single point]
c1nc(NCC2(N3CCOCC3)CCCCC2)c2ccsc2n1 |  | inconclusive: 28.2 µM [inhibitor, single point]
CCCn1c(=N)n(CC(=O)c2ccc([N+](=O)[O-])cc2)c2ccccc21 |  | active: 39.8 µM
COc1ccc(-c2[nH]c(-c3ccccc3)nc2SCC(=O)Nc2ccc3c(c2)OCO3)cc1 |  | inconclusive: 4.47 µM [inhibitor, partial curve, poor fit]
CCCSc1nnc(CN2CCOCC2)n1C | inconclusive: -58.8% [inhibitor] | 
O=[N+]([O-])c1ccc2ccn(C3OCC(O)C(O)C3O)c2c1 (stereo unspecified) |  | inconclusive: 44.7 µM [inhibitor, partial curve, poor fit]
Cc1ccc(NS(=O)(=O)c2cccc(C(=O)NCCc3c[nH]c4ccccc34)c2)c(C)c1 |  | inconclusive: 44.7 µM [inhibitor, partial curve]
Nc1c(C(=O)Nc2ccc(Br)cc2)sc2nc(-c3ccco3)ccc12 |  | inconclusive: 2 µM [inhibitor, full curve]
CC(C)C(c1nnnn1Cc1ccco1)N1CCC(C(N)=O)CC1 (stereo unspecified) |  | inconclusive: 39.8 µM [inhibitor, single point]
CCc1nnc(NC(=O)CSc2nccn2-c2ccccc2)s1 |  | inconclusive: 89.1 µM [inhibitor, single point]
NC(N)=Nc1ccc(N=C(N)N)cc1 |  | inconclusive: 89.1 µM [inhibitor, partial curve, poor fit]
CNC(=O)c1cc(C)c(-c2ccccc2)s1 |  | inconclusive: 35.5 µM [inhibitor, single point]
CCCc1nnc(NC(=O)CC(=O)OCC)s1 |  | inconclusive: 31.6 µM [inhibitor, partial curve, poor fit]
COc1cc(Cl)c(C)cc1NC(=O)CSc1nnc(-c2cccnc2)n1Cc1ccco1 |  | active: 39.8 µM
COCC(=O)Nc1ccc(Nc2ccccc2)cc1 |  | inconclusive: 2.51 µM [inhibitor, partial curve, poor fit]
Cc1csc(SCC(=O)NCc2ccccc2Cl)n1 |  | inconclusive: 89.1 µM [inhibitor, partial curve, poor fit]
Cn1nnnc1SCC(=O)Nc1c(Cl)cccc1Cl |  | inconclusive: 44.7 µM [inhibitor, partial curve]
CCCNC(=O)c1ccc(N2CCC3(CC2)CC(c2ccccc2)=NO3)c(NC(=O)c2ccc(Br)cc2)c1 |  | inconclusive: 56.2 µM [inhibitor, partial curve, poor fit]
Cn1c(-c2ccc(F)cc2)cnc1NCc1ccccc1F |  | active: 39.8 µM
Cc1cc(C)n(Cc2ccc(C(=O)O)o2)n1 | inactive: -8.66% [at 2.33 µM] | 
O=C(O)Cn1cnc2scc(-c3cccs3)c2c1=O |  | inconclusive: 25.1 µM [inhibitor, partial curve, poor fit]
